# The campaign covered roughly 400,000 compounds. About 2,200 (0.55%) were called active. Inconclusive results, whose numbers are uncertain, are shown with a selection of clear calls. The call rests on the fitted dose curve; in most records, active means well fitted inhibition curve with a large enough effect; inconclusive means small, poorly fitted or top-dose-only effect, or another doubt; inactive means no such curve, though single readings can be large or run the other way. Potencies of inconclusive entries are doubtful fits and often do not repeat.
# Target: DNA polymerase kappa (Homo sapiens) (UniProt Q9UBT6)
# UniProt Q9UBT6, sequence (Q9UBT6 whole entry, looked up): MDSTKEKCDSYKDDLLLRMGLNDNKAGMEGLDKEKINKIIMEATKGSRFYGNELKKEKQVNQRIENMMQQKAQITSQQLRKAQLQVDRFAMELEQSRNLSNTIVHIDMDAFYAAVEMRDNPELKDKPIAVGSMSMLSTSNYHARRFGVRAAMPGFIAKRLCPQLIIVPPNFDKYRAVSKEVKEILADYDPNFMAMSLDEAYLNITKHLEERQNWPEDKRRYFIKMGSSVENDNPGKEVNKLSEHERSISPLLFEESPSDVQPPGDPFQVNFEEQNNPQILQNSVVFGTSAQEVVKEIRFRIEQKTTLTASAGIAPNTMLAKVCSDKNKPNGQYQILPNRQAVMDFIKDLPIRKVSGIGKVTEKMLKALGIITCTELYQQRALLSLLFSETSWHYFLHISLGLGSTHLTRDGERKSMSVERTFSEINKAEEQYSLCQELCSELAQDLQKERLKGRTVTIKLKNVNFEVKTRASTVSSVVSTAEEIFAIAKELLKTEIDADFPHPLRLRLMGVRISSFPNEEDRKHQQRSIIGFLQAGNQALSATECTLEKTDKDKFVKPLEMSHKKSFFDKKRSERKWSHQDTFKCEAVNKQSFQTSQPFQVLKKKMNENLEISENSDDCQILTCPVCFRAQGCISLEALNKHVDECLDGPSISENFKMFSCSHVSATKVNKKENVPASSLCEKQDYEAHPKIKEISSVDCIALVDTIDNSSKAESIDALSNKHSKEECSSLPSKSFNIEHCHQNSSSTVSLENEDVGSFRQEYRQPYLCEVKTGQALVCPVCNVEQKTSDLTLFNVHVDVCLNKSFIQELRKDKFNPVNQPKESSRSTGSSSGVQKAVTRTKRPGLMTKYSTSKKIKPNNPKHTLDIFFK
# Experiment: qHTS for Inhibitors of Polymerase Kappa
# Details: purified Pol kappa, fluorescent DNA synthesis assay, 10 min; series mostly up to 107 µM; activity, negative = inhibition: at the top concentration
# Description: The processing and repair of DNA interstrand crosslinks (ICL) in eukaryotic cells are extremely complex, potentially involving multiple DNA repair and damage tolerance pathways, including homologous recombination, nucleotide excision repair, translesion synthesis (TLS), and cell cycle checkpoints.
# To that end, in a collaboration between the Oregon Health & Science University and the NIH Chemical Genomics Center a 1536-well high-throughput screen was developed. This fluorescent screen was assayed against the NIH Molecular Libraries Small Molecule Repository (MLSMR) to discover inhibitors of Pol Kappa.
# NIH Chemical Genomics Center [NCGC]
# NIH Molecular Libraries Probe Centers Network [MLPCN]
# Assay Submitter (PI): Stephen Lloyd, Oregon Health & Science University
# Three microliters of reagents (buffer in column 3 and 4 as negative control and 10 nM Pol kappa in columns 1, 2, and 5-48) were dispensed into a 1536-well black solid-bottom plate. Compounds (23 nL) were transferred via Kalypsys pin tool equipped with 1536-pin array. The plates were then incubated for 15 min at room temperature, and 1 uL substrate (50 nM final concentration) were then added to start the reaction and kinetically read twice at 0 min and 10 min on the Viewlux reader
# On the % scale 0 is the no-effect control and ±100 the full control effect; potency means the concentration at half of the fitted maximal effect; tags describe the fitted curve by direction and shape.
Structure (SMILES),Potency,"activity, negative = inhibition"
Cc1ccccc1NC(=O)CN1C(=O)S/C(=C\c2ccc(-c3cccc(C(=O)O)c3C)o2)C1=O,"inconclusive: 79.4 µM [inhibitor, partial curve, poor fit]",–
CC(C)C1Nc2ccc(C(=O)O)cc2C2C=CCC21 (stereo not given),"inconclusive: 50.1 µM [inhibitor, partial curve, poor fit]",–
CN1CCN(C2=Cc3ccccc3Oc3ccc(Cl)cc32)CC1,"inconclusive: 0.631 µM [inhibitor, partial curve, poor fit]",–
COc1ccc(N=C2SC(C(N)=O)CC(=O)N2Cc2ccc3c(c2)OCO3)cc1 (stereo not given),active: 89.1 µM,–
Cc1ccc(NC(=O)CCCCCC2NC(=O)NC2C)cc1 (stereo not given),–,inactive: 6.13%
COc1ccccc1NC(=O)c1oc2ccccc2c1NC(=O)Cc1cccs1,–,inactive: 0.105%
CCC1=NN2C(=N)/C(=C\c3ccc(OCCOc4ccc(NC(C)=O)cc4)cc3)C(=O)N=C2S1,–,inactive: -0.345%
NS(=O)(=O)c1cccc(NC(=O)c2cccc(S(=O)(=O)N3CCCCCC3)c2)c1,"inconclusive: 89.1 µM [inhibitor, partial curve, poor fit]",–
COc1ccc(Sc2ccc(/C=C3\C(=O)NN(c4ccccc4)C3=O)o2)cc1,"inconclusive: 56.2 µM [inhibitor, partial curve, poor fit]",–
COc1ccc(C(=O)N/N=C\c2ccoc2)cc1,"inconclusive: 89.1 µM [inhibitor, partial curve, poor fit]",–
COc1cc(/C=C(\C#N)c2nc3ccccc3s2)cc([N+](=O)[O-])c1O,active: 89.1 µM,–
ICC[n+]1csc2ccccc21,–,inactive: 5.36%
CCCOC(=O)c1cccc(Nc2nc(C(=O)OCC)nc3ccccc23)c1,–,inactive: -13.7%
O=C(O)c1c2c(nc3ccc(S(=O)(=O)N4CCC(C(=O)NC5CCCCCC5)CC4)cc13)CCCC2,active: 79.4 µM,–
N#C/C(=C\c1ccc(O)c(O)c1)C(N)=O,active: 10 µM,–
O=C(Nc1nc(-c2ccco2)c(-c2ccco2)s1)c1cnccn1,"inconclusive: 79.4 µM [inhibitor, partial curve]",–
Cc1c(N=Cc2cc3c(cc2[N+](=O)[O-])OCO3)cccc1[N+](=O)[O-],active: 44.7 µM,–
C=C/C(C)=C/CC1C(=C)CCC2C(C)(C(=O)O)CCCC12C (stereo not given),active: 15.8 µM,–
COC(=O)C1=C[C@@H](C(=O)OC)C2C3=C(C(=O)[C@@]2(C)NC(=O)c2ccccc2)[C@H](C)[C@@H]2C(=O)NC(=O)[C@@H]2[C@@H]3C1 (stereo not given in full),"inconclusive: 79.4 µM [inhibitor, partial curve, poor fit]",–
COc1cc(S(=O)(=O)O)c(C)cc1N=Nc1c(O)ccc2cc(S(=O)(=O)O)ccc12,active: 79.4 µM,–
Cc1nc2ccc(NC(=O)N3CCOCC3)cc2nc1C,–,inactive: -4.21%
Cc1cc(/C=C2\SC(=Nc3ccccc3)NC2=O)c(C)n1-c1ccc(S(N)(=O)=O)cc1,"inconclusive: 89.1 µM [inhibitor, partial curve, poor fit]",–
CCN(CC)S(=O)(=O)c1ccc(N2CCCC2)c(NC(=O)CN2C(=O)NC3(CCCC3)C2=O)c1,"inconclusive: 89.1 µM [inhibitor, single point]",–

Structure (SMILES),Potency,"activity, negative = inhibition"
COc1cccc(CNC(=O)c2ccc3c(Cl)c4c(nc3c2)CCCC4)c1,"inconclusive: 89.1 µM [inhibitor, partial curve, poor fit]",–
Cc1ccc(C(C)C)c(OCc2ccc(C(=O)Nc3ccc(S(N)(=O)=O)cc3C)o2)c1,"inconclusive: 56.2 µM [inhibitor, partial curve, poor fit]",–
N#Cc1cc(C(=O)c2cc(F)ccc2O)cn(-c2nccs2)c1=O,"inconclusive: 22.4 µM [inhibitor, single point]",–
O=C(CSc1nc2ccccc2o1)N/N=C/c1ccc(O)c(O)c1,active: 7.08 µM,–
Cn1cnc([N+](=O)[O-])c1SCC(=O)NN,"inconclusive: 89.1 µM [inhibitor, single point]",–
CCOC(=O)CN1C(=O)N[C@@H](c2cccc(F)c2)C(C(C)=O)=C1C,–,inactive: 4.37%
CCc1ccc(CC(=S)N2CCOCC2)cc1,"inconclusive: 89.1 µM [inhibitor, single point]",–
CC1(C)CC(=O)c2cc(C(=O)NCc3ccccc3)c(=O)[nH]c2C1,–,inactive: -5.36%
O=C(NC1CCC(O)CC1)c1cc(-c2ccco2)nc2ccccc12 (stereo not given),"inconclusive: 79.4 µM [inhibitor, single point]",–
CC(=O)Nc1nnc(SCc2cccc(F)c2)s1,"inconclusive: 3.98 µM [inhibitor, partial curve, poor fit]",–
O=c1cc2nc(-c3ccccc3F)nc(SCc3ccc(Br)cc3)n2[nH]1,"inconclusive: 89.1 µM [inhibitor, single point]",–
O=c1ccc2ccc(O)c(O)c2o1,active: 9.47 µM,–
O=C(CCc1ccc(O)c(O)c1)N/N=C/c1ccc2c(c1)OCO2,"inconclusive: 89.1 µM [inhibitor, single point]",–
O=C(COc1c(Cl)cccc1Cl)Nc1ccccc1N1CCCC1,"inconclusive: 89.1 µM [inhibitor, single point]",–
Cc1cc(=O)[nH]c(=O)n1Cc1ccccc1,"inconclusive: 89.1 µM [inhibitor, single point]",–
O=C(NC1CC(=O)N(c2ccc(F)cc2)C1)C(c1ccccc1)c1ccccc1 (stereo not given),–,inactive: -0.514% [at 60.1 µM]
Cc1ccc(N=Nc2c(N)[nH]n3c(=O)cc(-c4ccccc4)nc23)cc1,–,inactive: -12.1%
COc1ccc(C(CC(=O)N2CCCCC2)c2c(OC)cc(OC)c3c(-c4ccccc4)cc(=O)oc23)cc1 (stereo not given),active: 50.1 µM,–
O=C(Nc1cccc(-c2nc3ccccc3[nH]2)c1)c1cccc(NC(=O)c2ccco2)c1,"inconclusive: 100 µM [inhibitor, single point]",–
O=C(C1CC1)N1CCc2cc(Br)cc(S(=O)(=O)Nc3ccc(C(F)(F)F)cc3)c21,–,inactive: -1.47%
COc1cccc(/C=N/NC(=O)c2[nH]nc3c2CCc2ccccc2-3)c1O,"inconclusive: 17.8 µM [inhibitor, partial curve, poor fit]",–
COc1cc(/C=N/NC(=O)c2ccc(CSc3nc4ccccc4[nH]3)cc2)cc(OC)c1OC,"inconclusive: 39.8 µM [inhibitor, partial curve]",–

# — PubChem BioAssay AID588579 (National Center for Advancing Translational Sciences (NCATS), 2011)
